# Experimental data taken from PubChem BioAssay AID588342 (National Center for Advancing Translational Sciences (NCATS), 2011).
# The campaign covered roughly 360,000 compounds. About 25,000 (6.9%) were called active. This list was built around the results that the source calls inconclusive (neither active nor inactive); the mix of calls is not that of the screen. Calls come from the whole dose curve; as a rule, active = well fitted inhibition curve with a large enough effect; inconclusive = small, poorly fitted or top-dose-only effect; inactive = flat fitted curve, though single readings scatter. Where the call is inconclusive, the potency comes from a doubtful curve fit.
# Target: Luciferin 4-monooxygenase (Photinus pyralis) (UniProt P08659)
# Chain of UniProt P08659 (P08659 whole entry, looked up): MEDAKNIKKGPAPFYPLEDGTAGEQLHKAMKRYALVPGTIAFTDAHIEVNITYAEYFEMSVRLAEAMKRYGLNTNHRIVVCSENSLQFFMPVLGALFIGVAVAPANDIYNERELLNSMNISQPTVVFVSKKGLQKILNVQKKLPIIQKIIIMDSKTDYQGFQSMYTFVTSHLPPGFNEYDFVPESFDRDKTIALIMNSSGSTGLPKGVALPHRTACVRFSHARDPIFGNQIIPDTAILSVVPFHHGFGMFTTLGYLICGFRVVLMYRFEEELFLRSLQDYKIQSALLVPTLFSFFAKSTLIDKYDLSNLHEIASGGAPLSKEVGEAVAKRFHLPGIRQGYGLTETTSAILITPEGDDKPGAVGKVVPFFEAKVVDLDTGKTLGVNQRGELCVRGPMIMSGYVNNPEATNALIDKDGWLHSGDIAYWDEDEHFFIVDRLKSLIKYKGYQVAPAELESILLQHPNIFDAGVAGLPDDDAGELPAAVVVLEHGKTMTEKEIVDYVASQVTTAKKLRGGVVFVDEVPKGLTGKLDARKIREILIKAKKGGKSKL
# Assay: qHTS profiling assay for firefly luciferase inhibitor/activator using purifed enzyme and Km concentrations of substrates (counterscreen for miR-21 project); note: nearly all actives have a fitted effect of over 55% in size
# Conditions: purified FLuc, luminescence inhibition; series mostly up to 57.5 µM
# Summary of the method: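 Purified P. pyralis luciferase (10nM final) with 10uM D-luciferin and 10uM ATP (Km levels) in 50mM Tris acetate pH 7.5, 10mM Mg acetate, 0.01% Tween-20, 0.05% BSA; qHTS 6-point titration, ~60 µM downward; luminescence read.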
# Potency is the fitted concentration of half-maximal effect; tags give direction and shape of the fitted curve.
row,SMILES,Potency
1,Nc1cc(N)nc(SCC(=O)Nc2ccc(Br)cc2Cl)n1,"inconclusive: 23.9 µM [inhibitor, partial curve, poor fit]"
2,CCOc1ccc(CCn2c3c(c(=O)[nH]c2=O)C(NC(=O)c2cccc(F)c2)(C(F)(F)F)C(=O)N3)cc1OCC (stereo unspecified),"inconclusive: 19 µM [inhibitor, partial curve, poor fit]"
3,Cc1c(CCNC(=O)c2c(F)cccc2F)sc2nc(-c3ccc(F)cc3)nn12,inactive
4,Cn1ncc2c(N3CCN(c4ccc(F)cc4)CC3)ncnc21,inactive
5,CC1CCN(C(=O)c2[nH]cnc2C(=O)NCc2ccc(CNC(=O)OC(C)(C)C)cc2)CC1,inactive
6,COc1cc(-c2nc3sccn3c2Nc2c(C)cccc2C)ccc1O,"inconclusive: 15.1 µM [inhibitor, partial curve]"
7,Cc1ccnc2nc(NC(=O)c3ccco3)nn12,"inconclusive: 30.1 µM [inhibitor, partial curve, poor fit]"
8,COc1ccc2nc(/N=C\N(C)C)sc2c1,active: 23.9 µM
9,O=C(Nc1ccc(F)cc1)Nc1csc2c1CCCC2,"inconclusive: 8.49 µM [inhibitor, partial curve, poor fit]"
10,Cc1ccc(CNC(=O)CSc2nc3c(sc4ccccc43)c(=O)n2CCCC(=O)NCCO)cc1,"inconclusive: 10.7 µM [inhibitor, partial curve]"
11,O=C(CSc1nnc(Nc2ccccc2)s1)Nc1cccnc1Cl,active: 16.9 µM
12,CC12CCC(=O)N1C(C(=O)Nc1nc3ccc(S(C)(=O)=O)cc3s1)CS2 (stereo unspecified),"inconclusive: 21.3 µM [inhibitor, partial curve, poor fit]"
13,COc1ccc2oc(C(=O)OCC(=O)NCc3ccc(OC)c(OC)c3)c(C)c2c1,inactive
14,COc1ccc(N2C(=O)c3ccccc3C2O)cc1 (stereo unspecified),"inconclusive: 37.9 µM [inhibitor, partial curve, poor fit]"
15,Cc1nc2ccc(C(=O)c3ccccc3)cc2[nH]1,"inconclusive: 16.9 µM [inhibitor, partial curve]"
16,CCOC(=O)N/N=C/c1c(F)cccc1F,"inconclusive: 16.9 µM [inhibitor, partial curve, poor fit]"
17,N=C1/C(=C\c2ccc(-c3ccc(C(=O)O)cc3)o2)C(=O)N=C2SC=C(c3ccccc3)N12,"inconclusive: 21.3 µM [inhibitor, partial curve]"
18,Cc1cc(N2CCCC2)c(C)cc1C=O,"inconclusive: 30.1 µM [inhibitor, partial curve, poor fit]"
19,COc1ccc(CNC(=O)NC2CCCCC2)cc1,"inconclusive: 15.1 µM [inhibitor, partial curve, poor fit]"
20,CCc1nnc(NC(=O)CSc2sc3c(O)cc(=O)[nH]c3c2C#N)s1,"inconclusive: 37.9 µM [inhibitor, partial curve, poor fit]"
21,CCOCCc1nnc(NC(=O)C(=O)c2cc(C)n(-c3ccc(C)cc3C)c2C)s1,inactive
22,O=C(O)Cc1ccc2oc(-c3ccccn3)nc2c1,"inconclusive: 16.9 µM [inhibitor, partial curve]"
23,C=CCNC(=O)N1CCCC(N2CCN(c3ccccc3OC)CC2)C1 (stereo unspecified),inactive
24,COc1ccc(N(CC(=O)Nc2cccc(Cl)c2)S(=O)(=O)c2c(C)[nH]c(=O)[nH]c2=O)cc1,"inconclusive: 16.9 µM [inhibitor, partial curve, poor fit]"

row,SMILES,Potency
1,CC(C)NC(=S)NN=C1c2ccccc2-c2ccccc21,"inconclusive: 23.9 µM [inhibitor, partial curve, poor fit]"
2,CCOc1ccc(C(=O)Nc2ccc(S(=O)(=O)Nc3cc(C)on3)cc2)cc1,active: 16.9 µM
3,CCCn1c(C)cc(/C=C(\C#N)C(=O)OCC(=O)Nc2cccc(OC)c2)c1C,"inconclusive: 10.7 µM [inhibitor, partial curve]"
4,O=C(O)c1ccccc1C(=O)NCCCCCCNC(=O)c1ccccc1C(=O)O,inactive
5,COc1ccc(CCCc2nnc(SCC(=O)Nc3cccc(F)c3C)o2)cc1,"inconclusive: 37.9 µM [inhibitor, partial curve, poor fit]"
6,COc1cc(/C=C2/SC(=NCc3ccccc3)N(Cc3ccccc3)C2=O)ccc1O,"inconclusive: 23.9 µM [inhibitor, partial curve, poor fit]"
7,COc1ccc(OC)c(NC(=O)COC(=O)CN2C(=O)NC3(CCCC3)C2=O)c1,inactive
8,O=C(O)Cn1cc(/C=N/NC(=O)c2cc3cc(Br)ccc3o2)c2ccccc21,active: 12 µM
9,CCS(=O)(=O)c1ccc(-c2cccc(NC(=O)COc3ccc(Cl)cc3)c2)nn1,"inconclusive: 3.01 µM [inhibitor, single point]"
10,O=C(NCCC1=CCCCC1)NC1CCCCC1,active: 6.75 µM
11,Cc1ccc(C2=NS(=O)(=O)N(C)C(C(=O)NCc3ccc4c(c3)OCO4)=C2)cc1,"inconclusive: 33.8 µM [inhibitor, single point]"
12,COc1cccc2cc(-c3nc(-c4ccccc4F)no3)c(=O)oc12,active: 0.169 µM
13,CS(=O)(=O)N1CCC(C(=O)N2CCN(c3ccc(F)cc3)CC2)CC1,inactive
14,CCc1ccc(-c2csc(NC(=O)COC(=O)CCc3nc4ccccc4s3)n2)cc1,"inconclusive: 16.9 µM [inhibitor, partial curve]"
15,O=C(Cn1cnc2ccccc2c1=O)Nc1ccc2c(c1)OCCO2,active: 9.53 µM
16,CCOc1ccccc1CNC(=O)c1cc2c(=O)n(Cc3cccnc3)ccc2nc1C,inactive
17,C=CCNC(=S)N1CC2(C)CN(C(=S)NCC=C)CC(C)(C1)C2=O,inactive
18,Cn1c(=NC(=O)COc2ccccc2)sc2cc(F)cc(F)c21,inactive
19,O=C(N/N=C/c1ccc[nH]1)c1ccccc1O,active: 9.53 µM
20,Cc1cc(=O)[nH]c2nnc(SCc3ccc(Cl)cc3Cl)n12,"inconclusive: 30.1 µM [inhibitor, partial curve, poor fit]"
21,Cc1ccc(C(=O)c2ncc[nH]2)cc1,"inconclusive: 19 µM [inhibitor, partial curve]"
22,O=C(Nc1nc2c(s1)CCCC2)c1cc2n(n1)C(C(F)(F)F)CC(C1CC1)N2 (stereo unspecified),"inconclusive: 37.9 µM [inhibitor, single point]"
23,Cc1cc(-n2c(C)cc(C(=O)CSc3nncn3C(C)C)c2C)no1,inactive
24,O=C(CSc1ccc2c(c1)OCCO2)Nc1ccc(Br)cc1,"inconclusive: 21.3 µM [inhibitor, single point]"

row,SMILES,Potency
1,CCCc1ccccc1OCCNC(=O)c1cc(=O)n(C)c(=O)n1C,inactive
2,O=C(NCCc1ccccc1)C1CCN(C(=O)c2ccc(F)cc2)CC1,inactive
3,O=C(NC1CCCCC1)C(c1cccs1)N(C(=O)c1ccco1)c1ccc2c(c1)OCCO2 (stereo unspecified),"inconclusive: 26.9 µM [inhibitor, partial curve, poor fit]"
4,Oc1ccc(/C=N/N=C(c2ccccc2)c2ccccc2)c(O)c1O,"inconclusive: 13.5 µM [inhibitor, partial curve, poor fit]"
5,CCOc1cc(/C=N\Nc2nc(Nc3ccccc3)nc(N3CCOCC3)n2)ccc1OC(=O)c1ccco1,"inconclusive: 9.53 µM [inhibitor, partial curve, poor fit]"
6,CN(CCOc1ccccc1)C(=O)C1CCC(=O)N(CCc2ccc(Cl)cc2)C1 (stereo unspecified),"inconclusive: 26.9 µM [inhibitor, single point]"
7,O=c1cc(CSc2ccc(Cl)cc2)nc(-c2ccncc2)[nH]1,"inconclusive: 21.3 µM [inhibitor, partial curve, poor fit]"
8,Cc1cccc(NC(=S)NC(=O)c2oc3ccccc3c2C)n1,"inconclusive: 12 µM [inhibitor, partial curve]"
9,Cc1cccc(-c2nc(CC(=O)Nc3cccc(S(=O)(=O)NC4=NCCC4)c3)cs2)c1,"inconclusive: 23.9 µM [inhibitor, single point]"
10,CC1=CC(C)(C)NC(=S)N1c1cccc2cc(S(=O)(=O)O)ccc12,"inconclusive: 37.9 µM [inhibitor, partial curve, poor fit]"
11,COc1ccc(-c2noc(CSc3ccccc3)n2)cc1OC,active: 13.5 µM
12,CCn1c(SCC(=O)Nc2ccc(OC)c(S(=O)(=O)N3CCCCC3)c2)nnc1C1CC1,inactive
13,CCN1CCN(c2csc3ccc(Br)cc3c2=O)CC1,active: 13.5 µM
14,COC(=O)c1ccc2nc(NC(=O)COC(=O)CSc3nc(C)cc(C)n3)sc2c1,"inconclusive: 15.1 µM [inhibitor, partial curve, poor fit]"
15,CC(C)(C)c1ccc(C(=O)NCC(=O)OCc2cc(=O)n3nc(C4CC4)sc3n2)cc1,"inconclusive: 16.9 µM [inhibitor, partial curve]"
16,COc1ccc(Cl)cc1NCc1nnc2n1CCCCC2,inactive
17,COC(=O)c1c(NC(=O)c2ccc(OC)cc2OC)sc2c1CCCCC2,active: 6.01 µM
18,CC#CC(=O)N1CCC(CO)(CCc2ccccc2)CC1,"inconclusive: 30.1 µM [inhibitor, partial curve, poor fit]"
19,CCCCN(CCCC)C(=S)NC(=O)c1ccccc1Cl,inactive
20,[O-]/[N+](=C\c1ccccc1)c1ccccc1,"inconclusive: 19 µM [inhibitor, single point]"
21,Cc1cccc(Cn2c(-c3ccccc3)nc3ccccc32)c1,"inconclusive: 30.1 µM [inhibitor, partial curve, poor fit]"
22,O=C(NCC(c1ccco1)N1CCOCC1)c1ccccc1 (stereo unspecified),inactive
23,CC(C)NC(=O)c1onc(CSc2ccc(Cl)cc2)c1C(=O)NC(C)C,inactive
